Among all 48,000 compounds or so, about 450 (0.94%) were called active. Inconclusive results (about 19%) are left out. Calls come from the whole dose curve; as a rule, active = well fitted inhibition curve with a large enough effect; inconclusive = small, poorly fitted or top-dose-only effect; inactive = no such curve, though single readings can be large or run the other way. Some of the results follow.
assay: Primary qHTS for Identification of Small Molecule Inhibitors of Huntingtin Promoter Activity; details: HEK293 HTT promoter firefly luciferase reporter (activity 0% = vehicle and -100% = no light), 24 h; series mostly up to 57.5 µM; activity change, negative = inhibition: at the top concentration; note: nearly all actives have a fitted effect of over 50% in size
Summary of the method: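 Quantitative HTS used concentration series of up to 57.5 uM final on HEK293 luciferase reporter cells, 24 h at 37 degrees C. Readout was Dual-Glo firefly luminescence.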

Activity change, negative = inhibition, inactive:
COc1ccc(OC)c(NC(=O)CC(=O)Nc2ccc3nc4n(c(=O)c3c2)CCCCC4)c1 -23.9%
Cc1nc(SCC(=O)Nc2ccc(C(=O)O)cc2)n[nH]1 -2.67%
CCc1ccccc1NC(=O)Cn1nc(N2CCN(c3ccccc3OC)CC2)ccc1=O -4.44%
O=C1c2ccccc2S(=O)(=O)N1CCCCN1CCN(c2ncccn2)CC1 8.56%
CN(C)CCCO[C@@H]1[C@H]2OC(C)(C)O[C@H]2O[C@@H]1C(O)CO (some centres not stated) 8.63%
Cc1ccc(C2CCN(C(=O)c3cnn(-c4ccc(C)c(C)c4)c3C3CCN(C(=O)OC(C)(C)C)CC3)C2)cc1 (configuration not stated) 0.462%
Cn1c([N+](=O)[O-])cnc1COC(N)=O 1.16%
Cc1cc(F)ccc1NC(=O)CCn1nc(C)c(S(=O)(=O)N2CCCCC2)c1C -32%
COc1ccccc1C(=O)Nc1ccc(S(=O)(=O)Nc2ncccn2)cc1 3.27%
COc1ccc(Cl)cc1NC(=O)c1cc(S(=O)(=O)N(C)Cc2ccccc2)ccc1F -18%
CCOC(=O)c1cnc2c(C)cccc2c1Nc1ccc(OC(C)C)cc1 -18.9%
Cc1ccc(C)c(N2CCN(c3nc4ccc(C(=O)c5ccccc5)cc4n4cnnc34)CC2)c1 -13.4%
CCOc1ccccc1OCCNC(C)Cc1ccc(OC)c(S(N)(=O)=O)c1 (configuration not stated) 0.831%
COc1ccccc1CN(Cc1c(Cl)cccc1Cl)S(=O)(=O)c1ccc(Br)cc1 -13.5%
Cn1c(=O)[nH]c(=O)c2c1nc(CN1CCN(c3ccccc3F)CC1)n2Cc1ccc(F)cc1 -12%
O=C(NCCc1ccc(Cl)cc1)c1ccc(CSCc2cccc(Cl)c2)o1 -6.59%
Cc1ccc(Cl)cc1NC(=O)c1oc2ccc(S(=O)(=O)N3CCCCCC3)cc2c1C -10.4%
Cc1cc(C)cc(OCC(=O)N2CCC(c3nc4ccccc4s3)CC2)c1 -9.5%
CCc1cccc(C)c1NC(=O)CSc1nc2c(c(=O)[nH]1)CCC2 -20.6%
Cc1ccc2oc(=O)n(CCNC(=O)Nc3ccc(Cl)cc3)c2c1 -14.6%
Cc1cc(C(=O)NCc2ccccc2Cl)c2c(C)nn(-c3cccc(F)c3)c2n1 -23.6%
O=C(NCC(c1ccco1)S(=O)(=O)c1cccs1)c1ccc(Cl)cc1 (configuration not stated) -4.66%
CCCN(C(=O)Nc1cn(CC(C)C)c(=O)c2ccccc12)c1ccc(F)cc1 -24.2%
CC(=O)N1CCc2c(sc3c2c(=O)n(-c2ccc(C)cc2)c(=O)n3Cc2ccccc2C)C1 -24.2%
CCCCNC(=O)c1ccc2c(c1)NC(=O)C(CS(=O)(=O)Cc1ccc(C)cc1)N2 (configuration not stated) -8.76%
CCCCN(C)S(=O)(=O)c1ccc(C(=O)Nc2ccc(-c3nc4ccc(C)cc4s3)cc2)cc1 57.7%
CC(C)C(=O)OCc1cc(=O)n2nc(C3CC3)sc2n1 18.3%
Cc1cccc(C)c1NC(=O)CN1CCCCCC1 11.2%
CCN1CCN(c2oc(/C=C/c3cc(OC)c(OC)c(OC)c3)nc2C#N)CC1 -11.8%
Cc1cc(Cl)ccc1NC(=O)CCCn1nc(C)c2c(C)n(-c3ccccc3)nc2c1=O -23.9%
CCc1ccc(C2c3c(oc4cc(C)c(C)cc4c3=O)C(=O)N2c2nc(C)c(C(=O)OC)s2)cc1 (configuration not stated) 14.9%
CCC1CN(C(=O)Nc2cc(Cl)c(OC)cc2OC)c2ccccc2O1 (configuration not stated) -5.31%
Cc1cc(C)cc(NC(=O)CSc2nc3sc4c(c3c(=O)[nH]2)CCCC4)c1 -13.2%
COc1cc(OC)c(C2C(C(=O)Nc3ccccc3)=C(C)Nc3ncnn32)cc1OC (configuration not stated) -3.89%
COc1ccc(-c2noc(CC(=O)Nc3ccc(C)c(F)c3)n2)cc1 5.56%
CSc1ccc(CCNC(=O)c2cc3cc4cc(C)ccc4nc3s2)cc1 27.5%
CCc1nn(CC(=O)NCCCc2ccccc2)c(=O)c2cc3ccccc3n12 12%
Cc1c(Cl)cccc1NC(=O)Cn1c(=O)n(Cc2nc(-c3ccccc3)no2)c(=O)c2cc3c(cc21)OCO3 -4.28%
CCCC(=O)Nc1cccc(-c2cn3c(C)csc3n2)c1 -6.23%
CCc1ccc(CNC(=O)c2cnc3c(C)cccn3c2=O)cc1 9.23%
COC(=O)c1sccc1S(=O)(=O)N(CC(=O)Nc1ccccc1)c1ccccc1 -10%
Cc1ccc(Nc2cc(C)c(C#N)c3nc4ccccc4n23)c(C)c1 -13.4%
Cc1c(Cl)cccc1NC(=O)C1CCN(c2nc3ccccc3[nH]2)CC1 -4.22%
CCc1ccc(-c2nc(CS(=O)CC(=O)NCCc3ccc(C)cc3)c(C)o2)cc1 (configuration not stated) -26.7%
CC(C)c1cnc2c(c1SCC(=O)NC(C)(C)C)c(=O)n(C)c(=O)n2C 5.75%
CCn1cc2c(n1)-c1c(oc(C(=O)Nc3ccc(Br)cc3F)c1C)CC2 32%
O=C(O)CC1c2ccccc2CCN1C(=O)Nc1cc(Cl)ccc1Cl (configuration not stated) -21%
Cc1ccc(CN(C(=O)c2ccc(OCC(C)C)cc2)c2ccccn2)o1 -1.9%
CCOC(=O)c1noc2nc(C)n(CC(=O)Nc3cccc(OC)c3)c(=O)c12 -5.44%
CCCCC1CCC(C(=O)N2CC(=O)Nc3ccc(Br)cc3C2c2ccc(F)cc2)CC1 (configuration not stated) -43.3%
COC(=O)COc1ccc(-c2nnc(Nc3ccc(O)cc3)c3ccccc23)cc1 0.0215%
CCc1ccc(S(=O)(=O)c2nnn3c2nc(N2CCN(c4ccccc4)CC2)c2cc(Cl)ccc23)cc1 4.97%
Cc1cccc2c1-c1sc(C(=O)Nc3ccc(F)cc3F)cc1CO2 -12.2%
CCN(CC)C(=O)Cn1c(=O)n(CCCCCC(=O)NCc2ccc3c(c2)OCO3)c(=O)c2sccc21 -10.9%
O=c1c2sc3ccccc3c2n(Cc2cccc(F)c2)c(=O)n1CCc1ccccc1 43.4%
CCC(=O)OCc1cc(=O)n2nc(C3CC3)sc2n1 6.87%
Cc1ccc(NC(=O)CN2C(=O)COc3ccc(S(=O)(=O)N4CCCCCC4)cc32)c(C)c1 -8.28%
Cc1ccc(CNC(=O)C(=O)Nc2c3c(nn2-c2ccc(F)cc2)CSC3)cc1 -19.4%
Cc1ccc(CNC(=O)c2ccc(N3CCCC3)c(NC(=O)Nc3ccc(C)cc3)c2)cc1 -1.9%
CCCc1cc(=O)oc2c3c(ccc12)OCN(Cc1ccccc1OC)C3 -28.1%
CN(C(=O)Cn1nc(Cc2cccnc2)c2ccccc2c1=O)c1cccc(C(F)(F)F)c1 -12.7%
COC(=O)c1ccccc1NC(=O)[C@H]1O[C@@H]2OC(C)(C)O[C@@H]2[C@H]2OC(C)(C)O[C@H]21 -9.07%
Cc1cc(C)cc(OCC(=O)Nc2cccc3cccnc23)c1 1.71%
CCCCCCC(=O)Nc1ccc2nc3c(=O)n(C)c(=O)n(C)c3nc2c1C -8.83%
CCCc1cnc2c(c1SCC(=O)NCc1ccc(C)cc1)c(=O)n(C)c(=O)n2C -12.4%
CC(=O)Nc1cccc(-c2nc(-c3ccccc3)no2)c1 55.6%
COc1ccccc1CCNC(=O)Cc1c(C)c2cc(Cl)c(O)cc2oc1=O -7.44%
CC(C)c1ccc(S(=O)(=O)N2CCN(Cc3cccc(F)c3)CC2)cc1 -39%
CC(=O)OCC(=O)[C@@]1(O)CCC2C3CCC4=CC(=O)CC[C@]4(C)C3[C@@H](O)C[C@@]21C (some centres not stated) 3.23%
COc1ccc(C)c2sc(NC(=O)c3ccc(S(=O)(=O)N(C)C)cc3)nc12 1.59%
CCOC(=O)C1CCN(C(=O)c2cc3sc(C)cc3n2C)CC1 12.8%
Cc1ccc(N(C)C(=O)c2sc3nc4n(c(=O)c3c2C)CCCC4)cc1C -23.7%
COCCCn1c(=O)c2sccc2n2c(CCCC(=O)NCc3cccc(OC)c3)nnc12 -16.3%
CN(C)CC[C@@H](c1ccc(Cl)cc1)c1ccccn1 9.99%
CCN1C(=O)c2ccccc2S(=O)(=O)c2ccc(C(=O)NCc3ccccc3)cc21 -19%
O=C(CSc1ncc(-c2ccccc2)[nH]1)Nc1ccccc1 7.77%
CCOC(=O)C1CCN(C(=O)c2ccccc2NC(=O)c2nsc3ccccc23)CC1 -8.73%
CCOC(=O)C1CCC(CN(Cc2ccc(Cl)cc2)S(=O)(=O)c2cccc(Cl)c2C)CC1 (configuration not stated) 14.4%
Cc1nc2nc(NC(=O)c3ccc(C(C)(C)C)cc3)[nH]n2c(=O)c1C -4.88%
O=C(CCC1N=C2c3ccccc3N=C(SCC(=O)Nc3cccc(Cl)c3)N2C1=O)NCc1ccco1 (configuration not stated) -5.33%
NC(=O)C1CCN(S(=O)(=O)c2cc3c(cc2Cl)NC(=O)CO3)CC1 -20.7%
CC1(C)S[C@@H]2[C@H](NC(=O)C(c3ccccc3)S(=O)(=O)O)C(=O)N2[C@H]1C(=O)O (some centres not stated) 6.35%
CCc1ccc(OCC2c3cc(OC)c(OC)cc3CCN2C(=O)c2ccc(S(=O)(=O)N3CCCC3)cc2)cc1 (configuration not stated) -23.8%
CCn1cc(C(=O)NCCCOC(C)C)c(=O)c2cc(S(=O)(=O)N3CCOCC3)ccc21 1.74%
CCOC(=O)c1cnc2c(ccc3ccccc32)c1Nc1ccc(N(C)C)cc1 -23.9%
Cc1cc(NC(=O)N2CCC(CN3CCCCCC3)CC2)ccc1Br 9.38%
COC(=O)c1ccc2c(=O)n(CCCCCC(=O)NCCc3ccccc3)c(=O)[nH]c2c1 3.38%
CN(CCOc1ccc(CC2SC(=O)NC2=O)cc1)c1ccccn1 (configuration not stated)
O=S(=O)(c1ccc(Cl)cc1)c1nnn2c1nc(NC1CCCC1)c1sccc12 2.72%
COc1ccc(N2CCN(C(CNS(=O)(=O)c3ccc(OC)c(C)c3)c3ccco3)CC2)cc1 (configuration not stated) -20.3%
COc1ccc(C)cc1-n1c(-c2ccc(Cl)cc2)cc2c1CC(C)(C)CC2=O 4.27%
COc1ccc(-c2nc(Cn3c(=O)cc(C)c4c(C)nn(-c5ccccc5)c43)c(C)o2)cc1OC -4.84%
Cc1ccc(NC(=O)Cn2c(=O)n(-c3ccc(C)cc3)c(=O)c3c2cnn3C)cc1 -2.42%
Cc1ccc(-n2nc(C)c3c(C)c(CCC(=O)NC(C)c4ccccc4)c(C)nc32)cc1 (configuration not stated) -5.39%
Fc1ccc(CN2CCc3nc(N4CCN(c5ccccc5F)CC4)ncc3C2)c(F)c1 -47.5%
CCOc1ccc(NC(=O)c2c(C)oc3nc(C)nc(N4CCCC4)c23)cc1 -6.21%
COc1ccc(CCNC(=O)CCc2cn(Cc3ccccc3Cl)c3ccccc23)c(OC)c1 -26.3%

From PubChem BioAssay AID1508623 (National Center for Advancing Translational Sciences (NCATS), 2021)
